# Data from publication PMC4336329 (PLoS ONE, 2015).
# Hit rate of the full screen: of about 310,000 compounds, about 14,000 (4.5%) showed an effect of 50% or more. Effects have a minus sign here. The list shows a part of the results.
# Target: human ether-à-go-go-related gene (hERG) potassium channel (human, UniProt Q12809)
# Assay: primary screen, population patch clamp on CHO cells stably expressing hERG
# 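Also: peak tail current of the secondary pulse compared with the same well before compound.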
# Sequence of human ether-à-go-go-related gene (hERG) potassium channel (Q12809 whole entry, looked up): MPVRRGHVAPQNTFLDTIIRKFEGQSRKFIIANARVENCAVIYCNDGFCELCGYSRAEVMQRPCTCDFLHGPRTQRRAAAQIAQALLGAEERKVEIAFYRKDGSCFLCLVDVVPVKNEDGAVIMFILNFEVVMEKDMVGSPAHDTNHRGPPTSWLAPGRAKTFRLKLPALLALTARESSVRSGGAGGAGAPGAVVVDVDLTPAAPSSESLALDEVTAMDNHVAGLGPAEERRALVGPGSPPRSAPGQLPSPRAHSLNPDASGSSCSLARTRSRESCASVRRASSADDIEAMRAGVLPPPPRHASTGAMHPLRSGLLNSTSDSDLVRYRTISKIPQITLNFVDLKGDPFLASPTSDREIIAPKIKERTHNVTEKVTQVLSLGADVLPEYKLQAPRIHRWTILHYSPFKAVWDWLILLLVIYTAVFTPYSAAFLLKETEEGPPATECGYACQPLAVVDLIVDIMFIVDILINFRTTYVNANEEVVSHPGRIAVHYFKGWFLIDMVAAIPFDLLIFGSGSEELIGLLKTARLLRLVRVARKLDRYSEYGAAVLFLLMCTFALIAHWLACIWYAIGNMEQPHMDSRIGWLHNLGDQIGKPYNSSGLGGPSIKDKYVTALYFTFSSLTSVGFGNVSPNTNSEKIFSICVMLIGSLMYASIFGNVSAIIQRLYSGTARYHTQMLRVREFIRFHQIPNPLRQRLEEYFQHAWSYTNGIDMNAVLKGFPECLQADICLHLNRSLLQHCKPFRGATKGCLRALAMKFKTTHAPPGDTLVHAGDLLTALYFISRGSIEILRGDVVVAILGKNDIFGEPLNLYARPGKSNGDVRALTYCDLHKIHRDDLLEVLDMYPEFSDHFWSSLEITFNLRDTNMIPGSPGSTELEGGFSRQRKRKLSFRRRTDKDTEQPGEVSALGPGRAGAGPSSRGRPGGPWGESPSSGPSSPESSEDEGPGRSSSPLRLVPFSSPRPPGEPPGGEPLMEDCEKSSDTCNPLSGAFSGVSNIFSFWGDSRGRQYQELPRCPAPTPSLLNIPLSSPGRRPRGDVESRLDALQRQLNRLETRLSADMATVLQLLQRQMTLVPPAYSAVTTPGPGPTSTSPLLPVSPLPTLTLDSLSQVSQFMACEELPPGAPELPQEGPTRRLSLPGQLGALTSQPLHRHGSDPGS
row,Structure (SMILES),"hERG current change (%, negative = inhibition) at 10uM [%]"
1,CCn1cc(CCC(=O)NCCc2ccccc2)c2ccccc21,11.5
2,Nc1nc(-c2ccco2)c(-c2ccco2)s1,-6.16
3,O=C(NC(Nc1ccccn1)C(Cl)(Cl)Cl)c1ccccc1 (centres unmarked),9.96
4,Cc1ccnc(-n2c(-c3ccccc3)nc3ccccc3c2=O)c1,8.66
5,O=C1C2C(c3ccccc3)C=CC(c3ccccc3)C2C(=O)N1c1cccnc1 (centres unmarked),-1.18
6,O=C(CNC(=O)c1ccco1)Nc1ccc(Cl)cc1,19.6
7,O=C(NCc1ccccn1)C(=O)NCC1OCCN1S(=O)(=O)c1ccc(Cl)cc1 (centres unmarked),-15.2
8,COc1ccc(NS(=O)(=O)c2cccc(C(=O)NNC(=O)c3ccc(C)o3)c2)cc1,7.63
9,O=C(CSc1nnc(-c2ccccc2)c(-c2ccccc2)n1)N1CCOCC1,-25.1
10,O=C(O)c1ccc(S(=O)(=O)N2CCC(c3nc(-c4ccccc4Cl)no3)CC2)cc1,5.71
11,COC(=O)c1oc2c(c1C)C(=O)CCC2,7.3
12,Cc1sc(NC(=S)NC(=O)c2ccco2)c(C#N)c1C,8.39
13,CCC(=O)Nc1ccccc1C(=O)OC(c1ccccc1)c1ccccc1,-5.78
14,Cn1c(Cc2cccs2)nnc1SCC(=O)N1CCc2ccccc21,-19
15,NC(=O)c1ccccc1OCc1cccc2ccccc12,17.2
16,CC(=O)c1cccc(-n2nnnc2SCC(=O)NNC(=O)C(C)C)c1,39.6
17,Cc1ccccc1Nc1nnc(C)c(=O)[nH]1,-11.3
18,Cc1[nH]c(C)c(S(=O)(=O)N2CCN(c3cccc(Cl)c3)CC2)c1C(=O)N1CCCCC1,-4.51
19,COc1cc2c(C(=O)O)c(C)n(C)c2cc1Br,20.3
20,CCOC(=O)N1N=C(CC)CC1(O)C(F)(F)F (centres unmarked),1.52
21,Cc1ccccc1NC(=O)CN1C(=O)COc2ccc(Cl)cc21,6.61
22,CC1Cc2ccccc2N1C(=S)NC(=O)c1ccco1 (centres unmarked),16.2

row,Structure (SMILES),"hERG current change (%, negative = inhibition) at 10uM [%]"
1,COC(=O)c1cccc(S(=O)(=O)N(Cc2ccco2)Cc2cc3cc(OC)c(OC)cc3[nH]c2=O)c1,-4.75
2,CN(C(=O)CN1C(=O)NC(C)(c2cccc(Br)c2)C1=O)C1CCCCC1 (centres unmarked),-15.5
3,COc1ccc(-c2[nH]ncc2CN2CCCN(c3ccccc3)CC2)c(F)c1,-45.7
4,Cc1occc1C(=O)NNC(=O)Cc1ccccc1,-5.05
5,COc1ccc(-c2nnc(-c3ccc(N)cc3)o2)cc1,-5.64
6,CC(C)(C)c1cc(N)on1,11.1
7,C=CCSc1nnc(-c2ccc([N+](=O)[O-])cc2)o1,-0.134
8,CC(C)(C)C(=O)Nc1nnc(SCC(=O)NC2CC2)s1,15.3
9,COc1ccc(CCNC(=O)C2CCN(S(=O)(=O)c3c(C)noc3C)CC2)cc1OC,-16.9
10,COc1ccc(/C=N/NC(=O)CNC(=O)c2ccncc2)cc1OC,8.67
11,CCn1c(SCC(=O)NC2CCCCC2)nc2c(c1=O)SCC2,8.02
12,CCc1ccc2c(CN3CCN(Cc4ccccc4)CC3)cc(=O)oc2c1,-79.7
13,CCNc1ccc(C(=O)OCC(=O)NCc2ccccc2Cl)cc1[N+](=O)[O-],-6.1
14,O=C1CC(NS(=O)(=O)c2ccccc2F)CN1c1ccc2c(c1)OCCO2 (centres unmarked),-11.6
15,Cc1ccc(NC(=O)COC(=O)CSC(=S)N2CCOCC2)cc1C,33.5
16,Cc1cccc(OCC(=O)N/N=C/c2cn[nH]c2-c2ccc(Cl)c(Cl)c2)c1,5.1
17,CCN(CC)C(=O)CSc1nc2ccccc2c(=O)n1CCC(=O)N1CCN(c2ccccc2)CC1,-49.7
18,Cc1ccc(S(=O)(=O)c2ccccc2)cc1S,2.19
19,N#Cc1ccc(OCc2ccc(C(=O)O)o2)cc1,6.06
20,CSc1ccc(/C=C(/NC(=O)c2ccc(C)cc2)C(=O)Nc2cccc(C)c2)cc1,-1.38
21,CCN(c1ccc(NC(=O)CCNC(=O)c2ccco2)cc1)C(C)C,2.02
22,CC(C)Cn1nc(NC(=O)c2ccco2)c2cc3ccccc3nc21,5.34
